Assay results published in the supplement of paper PMC11417369.
± gives the standard deviation of the averaged measurements. This is one part of the list.

test system: PfAP2-LT AP2 domain (GST-tagged); test: gcPBM binding intensity (ln(normalized median fluorescence intensity)); higher = stronger DNA binding
In short: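 Binding intensity is the highest Masliner-normalised natural-log median intensity over replicate spots in either probe orientation. To obtain it, GST-tagged P. falciparum DNA-binding domains made in E. coli were incubated for 1 h on an Agilent 4 × 180k array of primer-extended double-stranded 36-bp intergenic genomic probes plus negative controls. Detection used Alexa488 anti-GST antibody with scanning at 488 nm.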

Sequence | gcPBM binding intensity (ln)
ATGATACATAAAGAATATAAAACATGAAATATAATA [CACACA_negctrl_site1461] | 8.88 ± 0.48
GCCACACTTTTCTGCACACATAAAAAATATATAAAT [CACACA_site578] | 9.09 ± 0.45
TATATCGTTATATAAACACACAATATGTTTTTTATA [CACACA_site7730] | 8.69 ± 0.4
CTTTTATGAAACAGTGCACACATAAAAATATATACA [CACACA_site8981] | 9.06 ± 0.33
CATAAGAGGAACTTTTGTACTTATATGTATATAGTA [XGTACX_site5836] | 8.5 ± 0.33
AAAAAAAAAAAAAAAACACACATTTGAAAGAAAGAA [CACACA_site3339] | 8.69 ± 0.59
TACACCCATGGACACACACACACGCATAAAAAAAAA [CACACA_site4933] | 9.85 ± 0.58
ATTTTTATTTTCTTTACACACCACATAATTTTTTTT [CACACA_site6092] | 9.03 ± 0.58
ATGAACATTTATAAATGTACTCACATATATATATTT [XGTACX_site6692] | 8.74 ± 0.39
TTTATATTTATCCAAAGTACTTTTTAAAAACATACC [XGTACX_site4518] | 8.46 ± 0.42
TTTTTGTTTTTTTTTTGTACATATATATAAAAAATA [XGTACX_site1214] | 8.44 ± 0.5
TTTTTTTTAATATTTTACATTGTCTGTTAACAAATA [CACACA_negctrl_site599] | 8.44 ± 0.45
AACATTTTTAGATTATATTATTAAATAAGTAACTGC [XGTACX_negctrl_site326] | 8.46 ± 0.38
AGATATATATTTTATTGTACACATTAAAGTATAAAA [XGTACX_site7194] | 8.52 ± 0.4
AACACTTTAATTTATGCACACATATGGAACAACAGC [CACACA_site8241] | 9.2 ± 0.42
AAGTTTTTTATTTTTTGTACATAAAAAATAATAATT [XGTACX_site1755] | 8.34 ± 0.37
TATGTATTTATATATACACACTTCTGTGATACGAAA [CACACA_site5128] | 8.76 ± 0.38
TTTTTCATTTAACAGAAGGGAGATAAAAAAAAAAAA [TGCATGCA_negctrl_site261] | 8.12 ± 0.47
ATATTATTTTAAAGTACACACATATATTGATATATA [CACACA_site7153] | 8.85 ± 0.37
GTATGTATGTATGTATGTACGTATGTATGTATATAT [XGTACX_site3369] | 9.2 ± 0.36
AATAATTATAAAAAATGTACAAAAAAAAAAAAAAAA [XGTACX_site3681] | 8.68 ± 0.45
AGAATACATCTATGAACACACAGAGTTTTAAAAAAT [CACACA_site5514] | 8.98 ± 0.47
ATTAAAAATAAGAAGAGTACATATAATATATATACA [XGTACX_site3092] | 8.73 ± 0.46
ACCTTTTGGATTATATGTACATATATATATATATAT [XGTACX_site2687] | 9.61 ± 0.26
